# Laboratory results published in paper PMC4336329 (PLoS ONE, 2015).
# Among all 310,000 compounds or so, about 14,000 (4.5%) showed an effect of 50% or more. Effects have a minus sign here. Some of the results follow.
# Molecular target: human ether-à-go-go-related gene (hERG) potassium channel (human, UniProt Q12809)
# Experiment: primary screen, population patch clamp on CHO cells stably expressing hERG
# 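Further: peak tail current of the secondary pulse compared with the same well before compound.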
# Chain of human ether-à-go-go-related gene (hERG) potassium channel (Q12809 whole entry, looked up): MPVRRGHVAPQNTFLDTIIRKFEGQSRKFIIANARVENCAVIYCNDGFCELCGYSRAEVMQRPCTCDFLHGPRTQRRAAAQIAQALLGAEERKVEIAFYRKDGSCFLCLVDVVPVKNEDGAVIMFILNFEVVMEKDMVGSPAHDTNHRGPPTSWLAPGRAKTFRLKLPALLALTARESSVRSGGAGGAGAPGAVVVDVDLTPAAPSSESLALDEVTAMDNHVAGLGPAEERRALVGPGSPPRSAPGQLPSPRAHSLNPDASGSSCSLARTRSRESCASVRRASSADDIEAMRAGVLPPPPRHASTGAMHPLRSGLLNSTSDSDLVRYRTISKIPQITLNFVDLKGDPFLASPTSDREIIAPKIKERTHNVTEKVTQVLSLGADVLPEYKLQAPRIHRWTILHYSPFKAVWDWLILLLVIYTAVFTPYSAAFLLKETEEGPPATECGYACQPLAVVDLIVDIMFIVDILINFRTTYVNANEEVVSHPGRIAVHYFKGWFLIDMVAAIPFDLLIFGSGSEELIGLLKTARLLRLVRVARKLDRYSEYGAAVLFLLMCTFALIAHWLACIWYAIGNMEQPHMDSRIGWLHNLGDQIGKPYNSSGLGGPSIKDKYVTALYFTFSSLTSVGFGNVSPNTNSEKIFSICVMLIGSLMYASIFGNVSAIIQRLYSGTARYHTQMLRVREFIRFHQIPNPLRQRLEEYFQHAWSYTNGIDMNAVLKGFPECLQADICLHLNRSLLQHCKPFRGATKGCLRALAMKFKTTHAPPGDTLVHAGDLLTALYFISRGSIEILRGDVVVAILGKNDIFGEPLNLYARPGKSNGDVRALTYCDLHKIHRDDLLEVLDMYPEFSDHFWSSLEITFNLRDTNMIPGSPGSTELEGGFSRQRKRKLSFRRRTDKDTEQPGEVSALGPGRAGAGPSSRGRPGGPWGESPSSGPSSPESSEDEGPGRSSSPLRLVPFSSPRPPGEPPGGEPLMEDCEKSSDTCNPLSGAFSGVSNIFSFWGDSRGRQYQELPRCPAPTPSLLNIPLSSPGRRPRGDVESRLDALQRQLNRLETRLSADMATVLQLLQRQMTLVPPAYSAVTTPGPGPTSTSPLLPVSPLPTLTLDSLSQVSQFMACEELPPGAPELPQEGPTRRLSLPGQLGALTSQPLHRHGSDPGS
row,SMILES,"hERG current change (%, negative = inhibition) at 10uM [%]"
1,CCn1c(SCC(=O)N2CCN(c3cccc(Cl)c3)CC2)nc2ccccc2c1=O,-39.1
2,CN(CC(=O)O/N=C(\N)c1ccccn1)S(=O)(=O)c1cc(Cl)ccc1Cl,-14.2
3,CC(C)(C)c1ccc(/C=C/C(=O)Nc2ncccn2)cc1,-25.9
4,COc1ccc(C(=O)OCCc2cc3ccccc3c(=O)o2)cc1,-9.55
5,O=C(CNS(=O)(=O)c1ccc(Br)s1)Nc1ccc2c(c1)OCCO2,-9.7
6,COc1ccc(OC)c(C2CC(=O)N3CN(c4ccccc4F)CSC3=C2C#N)c1 (stereo not shown),15.2
7,COc1ccc(CCC(=O)Nc2ccc(Cl)c(S(=O)(=O)N3CCCC3)c2)cc1,-22
8,Cc1cc(OCC(=O)OCC(=O)NCC2CCCO2)ccc1Cl (stereo not shown),3.39
9,CCN(CC)S(=O)(=O)c1ccc(NC(=O)C2CCCO2)cc1 (stereo not shown),6.96
10,COc1cccc(OC)c1-c1nn2c(-c3ccccc3Cl)nnc2s1,-10.6
11,COc1ccc(Cl)cc1NC(=O)C(C)N(C)Cc1ccc(C(F)(F)F)cc1 (stereo not shown),11.2
12,Cc1cc(NC(=O)CCCN2C(=O)c3cccc4cccc(c34)C2=O)no1,4.73
13,COc1ccc(CC(=O)N2CCN=C2SC)cc1OC,2.82
14,COCCNC(=O)c1ccc(N2CC3CC(C2)c2cccc(=O)n2C3)c(NC(=O)c2ccc(Br)o2)c1 (stereo not shown),10.9
15,COc1ccccc1Nc1nnc(SCc2cc(=O)n3cc(C)ccc3n2)s1,-12.8
16,Cc1occc1-c1nnc(SCc2nc3ccccc3c(=O)n2CC#N)n1C,-21.5
17,Cc1cc(C)n(CCSCC(=O)O)n1,12.5
18,CCOC(=O)Cc1csc(NC(=O)CSc2ncnc3c2cnn3-c2ccc(OC)cc2)n1,5.81
19,Cc1cccc(N2C(=O)N3[C@H](c4ccc(F)cc4)[C@@H]4C(=O)N(C5CCCCC5)C(=O)[C@@H]4[C@]3(Cc3ccccc3)C2=O)c1,6.3
20,O=C(c1nc2ccc(Cl)cn2c1CN1CCCC1)N1CCc2ccccc2C1,-10.6
21,CN(C#N)c1nc(Cl)nc(Nc2cccc(Cl)c2)n1,7.58
22,CCc1cccc(CC)c1C(OC(C)=O)c1cccnc1 (stereo not shown),-0.238

row,SMILES,"hERG current change (%, negative = inhibition) at 10uM [%]"
1,O=c1oc(-c2ccco2)nc2ccccc12,6.96
2,COc1cc(S(=O)(=O)Nc2cccc(C(=O)O)c2)c(OC)cc1Cl,13.3
3,COc1ccc(NC(=O)CN2CCN(C3c4ccccc4-c4ccccc43)CC2)c(OC)c1,-10.5
4,O=C(CN(CC1CCCO1)C(=O)CNS(=O)(=O)c1ccccc1)NCc1ccco1 (stereo not shown),13.2
5,CC(C)[C@H](NC(=O)OC(C)(C)C)C(=O)N/N=C/c1ccc2nccnc2c1,5.34
6,Cc1ccc(C2NC(=O)c3c(sc(C)c3C)N2)c(O)c1 (stereo not shown),-3.45
7,CCOc1ccc(/C=C2\SC(=S)N(CCCC(=O)NCCCN3CCOCC3)C2=O)cc1,-4.5
8,O=C(COC(=O)c1oc2ccccc2c1COc1ccccc1)NCCN1C(=O)CSC1=O,-31.6
9,O=C1CSC(c2cccc([N+](=O)[O-])c2)N1c1ccccc1F (stereo not shown),-19.4
10,CC1(C)Cc2c(c(N3CCOCC3)nc3sc(C(N)=O)c(N)c23)CO1,-5.66
11,COc1ccc(C2C=C(c3ccc(F)cc3)NC(=S)N2)cc1OC (stereo not shown),-2.12
12,O=S(=O)(NCC1CCCO1)c1cc(Br)c(Br)s1 (stereo not shown),-19.2
13,COc1cc(/C=C/C(=O)OC(C)C(=O)c2ccccc2)cc(OC)c1OC (stereo not shown),-1.47
14,COCCNC(=O)c1c(CSc2ccccc2)noc1C(=O)NCc1ccccc1,-13.6
15,O=c1c2ccccc2c(C=Nc2cccc(O)c2)c(O)n1-c1ccc2c(c1)OCO2,13.3
16,COc1cc(C(=O)NCc2ccc(S(N)(=O)=O)cc2)ccc1OCC(=O)Nc1cccc(C(F)(F)F)c1,15.5
17,CCOC(=O)C1=C(C)NC(C)=C(C(=O)OCC)C1C(=O)OCC(=O)NC,15.5
18,CSc1ccccc1C(=O)N1CCN(c2cccc(Cl)c2)CC1,11.6
19,COc1ccc(N(CC(=O)NCCC2=CCCCC2)S(C)(=O)=O)cc1,-16.1
20,CCN(CC)CCOC(=O)C(c1ccccc1)c1ccccc1.Cl,-52.2
21,COc1ccc(CCN(Cc2cc3cccc(C)c3[nH]c2=O)C(=O)NC2CCCCC2)cc1OC,-25
